Results reported in the supplement of paper PMC3334620.
In all, about 33,000 sequences were measured (“E-score (-0.5 to 0.5)”: median about -0.01, highest 2% from about 0.26 on). The list shows a part of the results.

These sequences were tested against Ste12 (UniProt P13574) (assay: PBM E-score (8-mer binding enrichment) (E-score (-0.5 to 0.5)); higher = stronger / more preferred TF binding; most listed sequences are background and not binding sites). Conditions: protein concentration: 200 nM; construct: GST-DNA-binding domain.
In short: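 GST-tagged yeast TFs (full-length or DNA-binding domain) were made by PURExpress in vitro transcription/translation and applied at about 100-200 nM to universal all-10-mer Agilent arrays. The arrays were made double-stranded by primer extension, on fresh or once-stripped slides. Bound protein was detected with fluorescent anti-GST, and scans were normalised with masliner. Each ungapped eight-base word, pooled with its reverse complement, received an E-score (modified Wilcoxon-Mann-Whitney statistic) from the Universal PBM Analysis Suite.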

Sequence	PBM E-score
AACTTGAT	0.151
CTATACCA	0.0746
CGAGTCAG	-0.119
CTAGGCGC	-0.154
AGTGAGAC	0.0658
TCATGGGA	-0.0265
GAAGTAAA	0.161
AATGCCTA	0.0216
ACTTACCT	-0.0503
CGCCAATA	0.036
CGACGGCG	-0.0199
TAGGCTCA	-0.15
CAGCACCA	-0.0901
GTTCTGAA	0.114
CGGAGCGC	0.0689
CTATACAA	-0.0712
TAATAATA	0.181
ATTGGTGC	0.0393
GCGGCGCA	-0.12
GAACAAGA	0.00666
GGTCCGGA	0.0768
CGATGTTC	0.0123
GGCAGCAC	-0.0772
CTTGGAAC	-0.105
CACAACTG	0.0283

Sequence	PBM E-score
AAATAGCC	-0.00727
CAGATCCG	-0.00451
CCTGCACC	-0.0794
GAAGTATA	0.0919
GAGCATGA	-0.0834
GCGTTCTA	-0.0704
AAAGATGG	0.00324
CATTATCC	0.143
CACGGTAC	-0.15
GCAAAGCC	-0.185
AAAACTAG	0.182
CCAGAACA	0.0595
ATCGTTTC	0.35
GAGGAGCA	-0.0496
CGGTCTAA	-0.0644
CGGGCGTA	-0.0442
TCTTGACA	-0.0432
ACTAAGTG	0.0621
ACCAGGAA	-0.00935
ACACCCCT	-0.0112
ACTAGCCT	0.0711
AACCTGGT	0.0596
CCCGCCCA	0.332
ACCAACAG	-0.042
ACCCCGCC	0.41

Sequence	PBM E-score
CAGCTCAC	-0.301
CTTTGTCC	0.0626
CAATCTGA	-0.00699
GTTCGGAA	0.097
GGCTAGGA	-0.0596
ACGTTAGT	-0.0471
CCCCTTCA	-0.0892
TCAGCACA	0.00131
ACGGATGA	-0.022
ATCCAGAT	0.0989
AAATGCTT	0.033
AATCCGCC	-0.0917
CCGATCGG	0.0195
CTCCATGC	-0.15
CGTCAGAA	-0.0833
CTCTTTCA	-0.00124
ACCTTCGT	-0.185
AGGGTGTG	0.0609
GAGTCGGC	0.0226
GGCAGACC	-0.246
AGTGGCGC	0.0832
GCGTACCA	-0.158
GGCCGGAA	-0.0707
CACAATAG	0.227
TAGCATAA	-0.0762

Sequence	PBM E-score
CAAACGTG	0.146
AACGTCGA	0.0936
GGCGCAGA	-0.0264
CTACAACC	-0.0441
ACATATGG	0.0801
ACGGTAGC	-0.229
CTCGCTTC	-0.142
ACGAGCGC	-0.0483
AATTTGGC	0.0552
AATTACGT	-0.0503
ATGTGATA	0.084
GCCTAAGC	-0.358
ACTGGAAG	-0.0981
GAACGCCC	-0.0696
ATCCCCCA	-0.0699
TAGGACTA	-0.0996
AAATCTTG	0.0896
CAGCTCTC	-0.199
CAGCAGTA	-0.0736
GCATTACC	-0.176
GACCGTAA	-0.00253
AGACGGAC	-0.178
AAGACGGG	-0.0214
CTTCGTTA	0.0185
CAGGTTAG	-0.0618

Sequence	PBM E-score
ATATCTAG	0.0193
CCGCTCCC	-0.164
AGACTCAC	-0.264
ATAAGTAT	0.042
ATTGAGGG	-0.124
AGGGTTTA	0.00108
TCTTTAAA	0.146
CAGCGCCA	-0.145
CAATTATC	0.231
GTAGCGAA	-0.126
CGCGTAAG	-0.0415
CGACACCA	-0.0428
ATTCGCCG	0.0635
ATTGGGGG	-0.233
AGCCGTAG	0.00545
GCCAGTAA	0.00676
ACATGTTC	-0.0966
ACAATAGA	-0.0136
CCATTGTC	-0.0322
AAGTGCGG	-0.0546
AAACATAG	0.205
ACTTCTAG	-0.0758
CGCACTCA	-0.065
CGATAGAG	-0.263
ATTCCAAA	0.167

Sequence	PBM E-score
TGACCACA	-0.222
GGCCGGCA	0.115
GCGTACGA	0.0364
TAATAGGA	-0.0788
ACTTTATG	0.149
CGTCTAGA	-0.174
GATGCCAA	-0.136
CGTGCTCA	-0.0374
CCACGACG	-0.0503
CTCCCACC	-0.051
CGTCAGGC	-0.174
GAGGCCGA	-0.0143
CCTATCGA	0.0224
CGGCCGCC	-0.0604
AATTGTGC	0.012
GAGGTTCA	0.0271
CGTACTTC	0.0278
ATAGGCAG	-0.00285
ACATATCG	0.0123
TACCCGAA	0.0635
CGCACCTA	-0.0159
ACAACAGA	-0.0413
ATGTGGTG	0.0839
CGTTATAG	0.00461
GCGGCTCA	0.0577

Sequence	PBM E-score
AAACCGAT	0.153
CAGCGGCC	-0.115
AACCCCCA	-0.196
CATTTCTC	0.146
TGAGAAAA	0.134
GCACTGCC	-0.00046
GAGACTGC	-0.0788
AAGGGGCG	-0.0232
AAGACCAA	-0.0551
GCGCTTCA	0.114
CGTTAAAG	0.0915
CGTGCTTC	0.133
CCACGTAG	-0.18
AAACTATG	-0.0101
ACGTTAAA	0.0806
CCCTGCGC	-0.0772
TCGTGTCA	0.0839
ACTGATTA	-0.0244
GCGCGTCC	-0.175
AGCCCAGA	-0.165
CCTAGCCG	-0.077
CTAAAAAC	0.023
